# According to PMC4336329 (PLoS ONE, 2015):
# Screen size: about 310,000 compounds; about 14,000 (4.5%) showed an effect of 50% or more. The effect is printed as a negative number. The list shows a part of the results.
# Molecular target: human ether-à-go-go-related gene (hERG) potassium channel (human, UniProt Q12809)
# Assay: primary screen, population patch clamp on CHO cells stably expressing hERG
# 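Note: peak tail current of the secondary pulse compared with the same well before compound.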
# Sequence of human ether-à-go-go-related gene (hERG) potassium channel (Q12809 whole entry, looked up): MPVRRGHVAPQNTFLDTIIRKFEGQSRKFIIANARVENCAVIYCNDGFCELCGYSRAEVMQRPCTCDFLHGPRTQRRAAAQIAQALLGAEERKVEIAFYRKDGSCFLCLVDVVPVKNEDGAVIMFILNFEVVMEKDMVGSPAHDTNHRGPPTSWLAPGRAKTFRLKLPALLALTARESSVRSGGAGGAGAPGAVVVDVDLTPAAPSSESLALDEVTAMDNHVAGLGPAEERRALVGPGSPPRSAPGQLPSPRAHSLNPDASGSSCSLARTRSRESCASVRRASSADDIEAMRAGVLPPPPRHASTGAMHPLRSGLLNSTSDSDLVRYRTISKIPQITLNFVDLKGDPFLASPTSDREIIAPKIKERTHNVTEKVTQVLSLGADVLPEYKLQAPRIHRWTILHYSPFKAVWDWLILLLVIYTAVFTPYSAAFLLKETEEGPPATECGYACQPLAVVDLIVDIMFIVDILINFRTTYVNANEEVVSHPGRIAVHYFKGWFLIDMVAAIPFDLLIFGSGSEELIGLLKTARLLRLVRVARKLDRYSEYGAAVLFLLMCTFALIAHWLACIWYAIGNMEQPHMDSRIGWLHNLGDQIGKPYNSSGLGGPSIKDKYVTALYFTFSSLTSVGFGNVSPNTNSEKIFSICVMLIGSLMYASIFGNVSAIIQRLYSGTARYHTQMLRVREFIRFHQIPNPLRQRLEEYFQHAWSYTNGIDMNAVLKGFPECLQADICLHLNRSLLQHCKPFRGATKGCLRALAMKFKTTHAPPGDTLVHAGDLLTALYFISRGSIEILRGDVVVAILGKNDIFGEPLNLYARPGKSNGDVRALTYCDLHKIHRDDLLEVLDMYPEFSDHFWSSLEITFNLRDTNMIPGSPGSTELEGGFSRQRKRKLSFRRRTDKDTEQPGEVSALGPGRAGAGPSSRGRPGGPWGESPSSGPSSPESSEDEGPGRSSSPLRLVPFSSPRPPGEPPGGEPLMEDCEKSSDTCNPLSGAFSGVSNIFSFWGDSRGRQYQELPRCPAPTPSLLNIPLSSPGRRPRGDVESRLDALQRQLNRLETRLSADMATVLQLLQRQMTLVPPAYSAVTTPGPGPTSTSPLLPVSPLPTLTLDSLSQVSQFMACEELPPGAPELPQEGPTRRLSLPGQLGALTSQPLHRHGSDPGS
row,Structure (SMILES),"hERG current change (%, negative = inhibition) at 10uM"
1,COc1ccc(-c2cc(C(=O)Nc3cc(C)nn3-c3ccccc3)no2)cc1OC,16%
2,O=C(NCc1ccc(F)cc1Cl)C1CCN(S(=O)(=O)N2CCCCC2)CC1,-6.95%
3,O=C(OCC(=O)N1CCN(C(=O)c2ccco2)CC1)c1cccc(F)c1,-16.8%
4,Fc1ccccc1/C=N/n1cc(-c2ccccc2)[nH]c1=S,8.21%
5,CC1=C(C(=O)OC(C)(C)C)C(c2ccc(Br)cc2)NC(=O)N1CCCC(=O)O (stereo not drawn),0.0237%
6,COc1cc(NC(=O)COc2ccc(Cl)cc2)ccc1-c1cc2ccccc2oc1=O,15.5%
7,Cc1cc(NC(=O)CSc2nnc(NCc3ccccc3)s2)no1,23%
8,C=C(C)Cn1c(SCC(=O)O)nc2c1c(=O)[nH]c(=O)n2C,-6.43%
9,OC[C@H]1OC(O)[C@H](O)[C@@H](O)[C@H]1O (stereo partly drawn),12.7%
10,N#C/C(=C\c1cccc(Cl)c1)c1n[nH]c(Cn2cncn2)n1,2.7%
11,CC/C(=C/c1sc2ccc(C)cc2[n+]1CCCS(=O)(=O)[O-])SC,9.77%
12,CCOCCOC(=O)c1[nH]c2c(c1C)C(=O)CC(c1cccs1)C2 (stereo not drawn),-1.56%
13,CC(NC(=O)CCCN1C(=O)c2ccccc2C1=O)c1ccc2c(c1)CCCC2 (stereo not drawn),-2.18%
14,COc1ccc(-n2c(SCC(=O)N/N=C(\C)c3cccnc3)nc3ccccc3c2=O)cc1,4.88%
15,Cc1ccc2nc(SCC(=O)O)nc(C)c2c1,-13.1%
16,O=C(Nc1ccccc1O)c1ccc(Cl)cc1,7.71%
17,O=C(CCCSc1nc2ccccc2c(=O)[nH]1)c1ccccc1,-6.94%
18,CCOCCCNC(=O)C(c1ccc(OC)cc1)N(Cc1cccs1)C(=O)c1ccccc1O (stereo not drawn),-11.4%
19,CC(C)(C)C(=O)Nc1cc(C(F)(F)F)ccc1N1CCOCC1,1.53%
20,OCC[C@H]1C[C@@H](O)[C@H](O)[C@]2(Cc3ccccc3CO2)O1,10.1%
21,CCOc1cc(NC(=S)NCCc2ccccc2)c(OCC)cc1NC(C)=O,-7.27%
22,CC(C)Cn1c(CN(Cc2ccccc2)Cc2ccccc2)nc2c1c(=O)n(C)c(=O)n2C,-15.5%
23,CC(/C=N/NC(=S)Nc1cccc(S(=O)(=O)N(C)C)c1)c1ccccc1 (stereo not drawn),4.46%
24,Cc1cc(C)c2nc(-c3ccccn3)cc(C(=O)NCc3ccc(S(N)(=O)=O)cc3)c2c1,-2.17%
